In PubChem BioAssay AID485294 (National Center for Advancing Translational Sciences (NCATS), 2010):
Out of some 370,000 compounds screened, about 150 (0.041%) were called active. Inconclusive results, whose numbers are uncertain, are shown with a selection of clear calls. Calls come from the whole dose curve; as a rule, active = well fitted inhibition curve with a large enough effect; inconclusive = small, poorly fitted or top-dose-only effect; inactive = flat fitted curve, though single readings scatter. No potency is given beside an inconclusive call; the fits are too rough.

Target: Beta-lactamase (Escherichia coli (strain K12)) (UniProt P00811)
Assay: qHTS Inhibitors of AmpC Beta-Lactamase (assay with detergent); note: nearly all actives have a fitted effect of over 25% in size
Details: AmpC hydrolysis of nitrocefin, absorbance 480 nm, 0.01% Triton; series mostly up to 114 µM
Procedure, shortened: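 AmpC (5.3 nM in the dispensed reagent) in 20 mM phosphate pH 7.0 with 0.01% (detergent screen) or 0.0001% Triton X-100 was preincubated with compounds for 15 min at room temperature. Nitrocefin was then added from an 800 uM solution, and hydrolysis was followed at 480 nm.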
Potency is the fitted concentration of half-maximal effect; tags give direction and shape of the fitted curve.

UniProt P00811, sequence (P00811 whole entry, looked up): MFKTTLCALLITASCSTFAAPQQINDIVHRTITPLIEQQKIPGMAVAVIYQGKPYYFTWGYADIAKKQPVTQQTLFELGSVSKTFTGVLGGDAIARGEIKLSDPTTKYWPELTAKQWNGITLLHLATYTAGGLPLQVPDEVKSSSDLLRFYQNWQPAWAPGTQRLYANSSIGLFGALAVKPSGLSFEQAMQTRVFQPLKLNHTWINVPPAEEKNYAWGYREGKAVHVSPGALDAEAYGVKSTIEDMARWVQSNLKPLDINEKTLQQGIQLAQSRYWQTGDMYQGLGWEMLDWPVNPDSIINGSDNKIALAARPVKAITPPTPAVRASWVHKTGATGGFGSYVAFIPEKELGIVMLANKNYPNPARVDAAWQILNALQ

Compound | Potency
Cc1ccc2c(C(=O)CN3CCCC(C)C3)c(C)[nH]c2c1 (stereo not given) | inconclusive [inhibitor, single point]
Cn1c2cc(C#N)sc2c2cnn(Cc3ccc(F)cc3)c(=O)c21 | inconclusive [inhibitor, full curve, poor fit]
Cc1ccc(CN2C(=O)CSc3ccc(C(=O)NC4CC4)cc32)cc1 | inconclusive [inhibitor, full curve, poor fit]
CC(CCc1ccccc1)NC(=O)CSc1nnnn1C (stereo not given) | inconclusive [inhibitor, full curve]
CCCC(C(=O)NCCC(C)C)N(Cc1ccc(F)cc1)C(=O)c1snc(C(N)=O)c1N (stereo not given) | inconclusive [inhibitor, full curve, poor fit]
O=c1c2ccccc2nnn1CSc1nnc(-c2ccc3c(c2)OCO3)o1 | inconclusive [inhibitor, full curve]
Cc1cnc(C(=O)OC(C)C(=O)NC2CCCc3ccccc32)cn1 (stereo not given) | inconclusive [inhibitor, full curve, poor fit]
O=C(COc1ccc(Br)cc1CNCCCN1CCOCC1)Nc1ccccc1 | inactive
CCn1cc(CN2CCC(n3nccc3NC(=O)Cc3ccccc3)CC2)cn1 | inactive
O=C(O)C1CCCN1S(=O)(=O)c1cccc(S(=O)(=O)N2CCCC2C(=O)O)c1 (stereo not given) | inconclusive [inhibitor, full curve, poor fit]
O=C(COC(=O)c1cc([N+](=O)[O-])ccc1N1CCOCC1)NC1CCCCC1 | inconclusive [inhibitor, partial curve, poor fit]
CCOC(=O)N1CCN(C(=O)CSc2nc3ccccc3c(=O)n2-c2ccccc2)CC1 | inactive
Cc1ccc(OCCCCN2CCC(C)CC2)c(Br)c1 | inconclusive [inhibitor, full curve, poor fit]
COc1ccc(NC(=O)CCSc2ccc3ccccc3n2)cc1 | inconclusive [inhibitor, single point]
O=[N+]([O-])/C=C/c1cn(Cc2ccc(F)cc2)c2ccccc12 | inconclusive [inhibitor, partial curve, poor fit]
COc1ccc(N2CCN(S(=O)(=O)CCNC(=O)Cc3ccc(OC)c(OC)c3)CC2)cc1 | inactive
COc1ccc(OC)c(CN2CCN(C(=O)CNC(=O)c3cc(C)cc(C)c3)CC2)c1 | inconclusive [inhibitor, partial curve, poor fit]
O=C(Nc1ccccn1)C1CCN(S(=O)(=O)c2ccc3c(c2)OCCO3)CC1 | inconclusive [inhibitor, full curve, poor fit]
CC(=O)N1CC(C)Sc2ccc(S(=O)(=O)NCCc3ccccc3)cc21 (stereo not given) | inactive
Cn1c(CCNC(=O)C(C)(C)C)nc2ccccc21 | inconclusive [inhibitor, partial curve, poor fit]
Cc1cccc(-n2c(SCC(=O)NC3CCCC3)nnc2-c2ccoc2C)c1 | inconclusive [inhibitor, partial curve]
CC(C)[C@H](CN(N=O)[C@@H](Cc1ccccc1)CN(C)N=O)N(CCc1ccccc1)N=O | inactive

Compound | Potency
C/C(=N\Nc1cccc(C(F)(F)F)c1)c1ccc(O)cc1 | inactive
Cc1cccc(NC(=O)CSc2nnnn2-c2cccnc2)c1 | inconclusive [inhibitor, full curve, poor fit]
CCN(CC)CCN1C(=O)C(=O)/C(=C(/O)c2ccc(OC)cc2)C1c1cccs1 (stereo not given) | inconclusive [inhibitor, full curve]
CC(C)CCNC(=O)Cc1c(C(=O)O)[nH]c2ccc(Cl)cc12 | inconclusive [inhibitor, partial curve]
Cc1c(NS(C)(=O)=O)cccc1-c1nc2cccnc2s1 | inactive
O=C(NC(=O)c1cccc(F)c1)OC[C@@H]1CCCN2CCCC[C@H]12 | inconclusive [inhibitor, full curve, poor fit]
Cc1nc(N2CCCC2C(=O)O)c2oc3ccccc3c2n1 (stereo not given) | inconclusive [inhibitor, full curve]
COc1ccc(-c2cc(C(=O)N3CCC3)c3ccccc3n2)cc1OC | inconclusive [inhibitor, full curve, poor fit]
Cc1cn([C@H](C(=O)NCCCCCCCCCCC(=O)N2CCNCC2)[C@@H](C)O)nn1 | inconclusive [inhibitor, single point]
O=[N+]([O-])c1ccc(CS(=O)(=O)N2CCN(c3ccccc3)CC2)cc1 | inconclusive [inhibitor, full curve, poor fit]
O=C(NCc1cccs1)C1CCCN(S(=O)(=O)c2ccc3c(c2)OCO3)C1 (stereo not given) | inconclusive [inhibitor, partial curve]
COc1ccc(Nc2nc(N3CCCCC3)nc(N3CCCCC3)n2)c(OC)c1 | inactive
CCCCCCC1CC(CCC(=O)Nc2ccc([N+](=O)[O-])cc2)C(=O)O1 (stereo not given) | inconclusive [inhibitor, full curve, poor fit]
CCn1c(=O)c(C(=O)NCc2ccccc2)c(O)c2ccccc21 | inactive
CC(C)CCn1c(N)c(C(=O)NCc2cccs2)c2nc3ccccc3nc21 | inconclusive [inhibitor, partial curve]
N#Cc1c(N)nc(SCC(=O)OCc2ccccc2)c(C#N)c1-c1ccco1 | inconclusive [inhibitor, partial curve, poor fit]
CCOc1ccc(NC(=O)CSc2nnc(CNC(=O)C34CC5CC(CC(C5)C3)C4)n2CC)cc1 | inactive
O=C(/C=C/c1cccc([N+](=O)[O-])c1)NC(=S)Nc1ccc(CN2CCOCC2)cc1 | inconclusive [inhibitor, partial curve]
COc1ccc(NC(=O)CSc2nnc(-c3ccco3)n2C)cc1 | inconclusive [inhibitor, full curve, poor fit]
O=C1c2ccccc2C(Nc2ccc(F)c(Cl)c2)N1Cc1ccco1 (stereo not given) | inconclusive [inhibitor, full curve, poor fit]
NS(=O)(=O)c1cccc(NC(=O)COC(=O)COc2ccc3ccccc3c2)c1 | inconclusive [inhibitor, full curve]
COc1ccc(CCc2nnc(CCC(=O)NCc3cnc4ccccn34)o2)cc1 | inactive

Compound | Potency
COc1cccc(CNC(=O)C(=O)NCC(c2ccc3c(c2)OCO3)N2CCOCC2)c1 (stereo not given) | inactive
O=C(/C=C/c1ccco1)NC(=S)Nc1ccccc1 | inconclusive [inhibitor, full curve, poor fit]
CCOc1ccc(NC(=O)Nc2nc(SCC)ns2)cc1 | inconclusive [inhibitor, full curve, poor fit]
CC(C)C1N=C2c3ccccc3N=C(SCC(=O)c3ccc(O)c(O)c3)N2C1=O (stereo not given) | inconclusive [inhibitor, partial curve]
NCCCC[C@@H]1NC(=O)[C@H](CCC(=O)O)NC(=O)c2cc([N+](=O)[O-])cc(I)c2SC[C@@H](C(=O)NCC(N)=O)NC1=O | inconclusive [inhibitor, partial curve]
CCC(C)NC(=O)C1CCCN(S(=O)(=O)c2ccc3c(c2)CC(C)N3C(C)=O)C1 (stereo not given) | inconclusive [inhibitor, full curve, poor fit]
S=C(NCc1ccccc1)Nc1ccc(Oc2ccccc2)cc1 | inconclusive [inhibitor, full curve, poor fit]
NNc1nc(-c2ccccc2Cl)nc2sc3c(c12)CCCC3 | inconclusive [inhibitor, full curve]
Cc1ccc(NC(=O)C2CCN(c3ncnc4sc(C)c(C)c34)CC2)cc1S(=O)(=O)N(C)C | inconclusive [inhibitor, full curve, poor fit]
CCc1nc(-c2ccc(-c3ccc(OC)cc3)nc2OC)no1 | inactive
COc1ccc(OC)c(CNC(=O)CN2N=C(c3ccc(Cl)cc3)CCC2=O)c1 | inactive
Cc1ccc(S(=O)(=O)NC(CC(=O)O)c2ccccc2)cc1 (stereo not given) | inconclusive [inhibitor, full curve]
Cc1ccn2c(=O)c(C(=O)NC3CCCCC3C)c(O)nc2c1 (stereo not given) | inactive
CC1CCC(=NNC(=O)Cc2ccccc2)CC1 (stereo not given) | inconclusive [inhibitor, full curve, poor fit]
O=C(N=C1SCC(=O)N1c1ccccc1Cl)c1ccco1 | inconclusive [inhibitor, full curve, poor fit]
Cc1ccc(O)c(NC(=O)c2ccc3c(c2)C(=O)N(CC(C)C)C3=O)c1 | inconclusive [inhibitor, full curve, poor fit]
CCC(c1nnnn1C(C)C)N1CCN(C2CCCC2)CC1 (stereo not given) | inconclusive [inhibitor, partial curve, poor fit]
CCOC(=O)C1(Cc2cccc(OC)c2)CCN(C2CCOCC2)CC1 | inactive
CCOC(=O)N1CCN(S(=O)(=O)CCNC(=O)c2ccc(OC)cc2)CC1 | inconclusive [inhibitor, partial curve, poor fit]
CCc1cc2ccc(OC)cc2nc1SCC(=O)Nc1cc(C)on1 | inconclusive [inhibitor, partial curve, poor fit]
COc1ccc(-c2nc(CSCC(=O)NCCC3=CCCCC3)c(C)o2)cc1OC | inconclusive [inhibitor, full curve, poor fit]
